# In the supplement of paper PMC6089552:
# Hit rate of the full screen: of about 3,200 compounds, about 300 (9.4%) showed activity. The list shows a part of the results, in another mix than the full data.
# System: A673/TR/shEF
# Experiment: cell viability (LOESS-normalised, relative to median of negative controls) (log2 ratio); higher = more viable cells (less compound effect), active = hit call of the paper (over 3 MAD below the median)
# Settings: treatment time: 72 h
# Summary of the method: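 For three days, A673/TR/shEF Ewing sarcoma cells in 384-well plates (1,500 per well) were treated with library compounds at two or more concentrations or with DMSO controls, after doxycycline had been added or withheld 24 h beforehand to induce EWS-FLI1 shRNA knockdown. Viability was read by CellTiter-Glo luminescence on an Envision reader. The data were LOESS-corrected per plate, divided by the median of negative controls and log2-transformed.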
# [1] = 0.25 µM, library screen: screen1, EWS-FLI1 expression: high (no doxycycline)
# [2] = 0.25 µM, library screen: screen1, EWS-FLI1 expression: low (doxycycline-induced shRNA knockdown)
# [3] = 2.5 µM, library screen: screen1, EWS-FLI1 expression: high (no doxycycline)
# [4] = 2.5 µM, library screen: screen1, EWS-FLI1 expression: low (doxycycline-induced shRNA knockdown)
# [5] = 0.25 µM, library screen: screen2, EWS-FLI1 expression: high (no doxycycline)
# [6] = 0.25 µM, library screen: screen2, EWS-FLI1 expression: low (doxycycline-induced shRNA knockdown)
# [7] = 2.5 µM, library screen: screen2, EWS-FLI1 expression: high (no doxycycline)
# [8] = 2.5 µM, library screen: screen2, EWS-FLI1 expression: low (doxycycline-induced shRNA knockdown)
# [9] = 0.103 µM, library screen: screen3, EWS-FLI1 expression: high (no doxycycline)
# [10] = 0.103 µM, library screen: screen3, EWS-FLI1 expression: low (doxycycline-induced shRNA knockdown)
# [11] = 0.308 µM, library screen: screen3, EWS-FLI1 expression: high (no doxycycline)
# [12] = 0.308 µM, library screen: screen3, EWS-FLI1 expression: low (doxycycline-induced shRNA knockdown)
# [13] = 0.926 µM, library screen: screen3, EWS-FLI1 expression: high (no doxycycline)
# [14] = 0.926 µM, library screen: screen3, EWS-FLI1 expression: low (doxycycline-induced shRNA knockdown)
# [15] = 2.8 µM, library screen: screen3, EWS-FLI1 expression: high (no doxycycline)
# [16] = 2.8 µM, library screen: screen3, EWS-FLI1 expression: low (doxycycline-induced shRNA knockdown)
# [17] = 8.3 µM, library screen: screen3, EWS-FLI1 expression: high (no doxycycline)
# [18] = 8.3 µM, library screen: screen3, EWS-FLI1 expression: low (doxycycline-induced shRNA knockdown)
# [19] = 25 µM, library screen: screen3, EWS-FLI1 expression: high (no doxycycline)
# [20] = 25 µM, library screen: screen3, EWS-FLI1 expression: low (doxycycline-induced shRNA knockdown)
smiles,measurement,setting,value
C[C@]12CCC3c4ccc(OC(=O)CCC(=O)O)cc4CCC3C1CCC2=O (some centres undefined),cell viability (log2),[1],inactive: 0.126
same,cell viability (log2),[2],inactive: 0.0832
same,cell viability (log2),[3],inactive: 0.102
same,cell viability (log2),[4],inactive: 0.0823
C[C@]12CC[C@@H]3c4ccc(O)cc4CC[C@H]3[C@@H]1CC[C@@H]2OC(=O)CCC1CCCC1,cell viability (log2),[1],active: -0.302
CO[C@@]1(NC(=O)CSCC#N)C(=O)N2C(C(=O)O)=C(CSc3nnnn3C)CS[C@@H]21,cell viability (log2),[1],inactive: 0.154
same,cell viability (log2),[2],inactive: -0.106
same,cell viability (log2),[5],inactive: 0.158
same,cell viability (log2),[6],inactive: 0.135
same,cell viability (log2),[3],inactive: 0.0644
same,cell viability (log2),[4],inactive: 0.14
same,cell viability (log2),[7],inactive: 0.171
same,cell viability (log2),[8],inactive: 0.0931
COc1ccc2[nH]c(I)c(CCNC(C)=O)c2c1,cell viability (log2),[5],inactive: 0.187
same,cell viability (log2),[6],inactive: 0.0791
same,cell viability (log2),[7],inactive: 0.155
same,cell viability (log2),[8],inactive: 0.127
C[C@@H]1[C@H](O)[C@@H](C)/C=C/C=C/C=C/C=C/C=C/C=C/C=C/[C@H](O[C@@H]2O[C@H](C)[C@@H](O)[C@H](N)[C@@H]2O)C[C@@H]2O[C@](O)(C[C@@H](O)C[C@@H](O)[C@H](O)CC[C@@H](O)C[C@@H](O)CC(=O)O[C@H]1C)C[C@H](O)[C@H]2C(=O)O,cell viability (log2),[1],inactive: 0.127
same,cell viability (log2),[2],inactive: 0.0173
same,cell viability (log2),[3],inactive: 0.193
same,cell viability (log2),[4],inactive: 0.107
CC(N)=NCCCC[C@@H](N)C(=O)O,cell viability (log2),[5],inactive: 0.115
same,cell viability (log2),[6],inactive: 0.025
same,cell viability (log2),[7],inactive: 0.097
same,cell viability (log2),[8],inactive: 0.0427
CCOC(=O)C(C)(C)Oc1ccc(Cl)cc1,cell viability (log2),[9],inactive: 0.206
same,cell viability (log2),[10],inactive: 0.0599
same,cell viability (log2),[1],inactive: 0.214
same,cell viability (log2),[2],inactive: 0.14
same,cell viability (log2),[5],inactive: 0.131
same,cell viability (log2),[6],inactive: 0.176
same,cell viability (log2),[11],inactive: 0.148
same,cell viability (log2),[12],inactive: 0.147
same,cell viability (log2),[13],inactive: 0.109
same,cell viability (log2),[14],inactive: 0.0982
same,cell viability (log2),[3],inactive: 0.23
same,cell viability (log2),[4],inactive: 0.0959
same,cell viability (log2),[7],inactive: 0.11
same,cell viability (log2),[8],inactive: 0.0389
same,cell viability (log2),[15],inactive: 0.139
same,cell viability (log2),[16],inactive: 0.076
same,cell viability (log2),[17],inactive: 0.136
same,cell viability (log2),[18],inactive: 0.0942
same,cell viability (log2),[19],inactive: 0.0815
same,cell viability (log2),[20],inactive: 0.129
c1cnc2c(c1)ccc1cccnc12,cell viability (log2),[5],inactive: 0.203
same,cell viability (log2),[6],inactive: 0.155
same,cell viability (log2),[7],inactive: -0.0425
same,cell viability (log2),[8],inactive: 0.185
CC(C)NC[C@H](O)COc1ccc(CC(N)=O)cc1,cell viability (log2),[5],inactive: 0.0989
same,cell viability (log2),[6],inactive: 0.138
same,cell viability (log2),[7],inactive: 0.14
same,cell viability (log2),[8],inactive: 0.111
C=C1C2CC[C@@]3(C)[C@H](c4ccoc4)OC(=O)C[C@]13O[C@H]1CC(O)C(C)(C)C(CC(=O)OC)[C@@]21C (some centres undefined),cell viability (log2),[1],inactive: 0.0702
same,cell viability (log2),[2],inactive: 0.0804
same,cell viability (log2),[3],inactive: 0.102
same,cell viability (log2),[4],inactive: 0.0526
Brc1ccc([C@H]2CN3CCSC3=N2)cc1,cell viability (log2),"0.025 µM, library screen: screen1, EWS-FLI1 expression: high (no doxycycline)",inactive: 0.216
same,cell viability (log2),"0.025 µM, library screen: screen1, EWS-FLI1 expression: low (doxycycline-induced shRNA knockdown)",inactive: 0.000942
same,cell viability (log2),[1],inactive: 0.234
same,cell viability (log2),[2],inactive: 0.105
same,cell viability (log2),[5],inactive: -0.0213
same,cell viability (log2),[6],inactive: 0.123
same,cell viability (log2),[3],active: -0.357
same,cell viability (log2),[4],inactive: -0.0691
same,cell viability (log2),[7],inactive: 0.117
same,cell viability (log2),[8],inactive: 0.109
same,cell viability (log2),"25 µM, library screen: screen1, EWS-FLI1 expression: high (no doxycycline)",active: -0.468
same,cell viability (log2),"25 µM, library screen: screen1, EWS-FLI1 expression: low (doxycycline-induced shRNA knockdown)",active: -0.309
C=CC[C@H](N)C(=O)O,cell viability (log2),[5],inactive: 0.0719
same,cell viability (log2),[6],inactive: 0.157
same,cell viability (log2),[7],inactive: 0.0838
same,cell viability (log2),[8],inactive: 0.116
O=C(O)c1ccccc1Nc1ccccc1,cell viability (log2),[5],inactive: -0.0398
same,cell viability (log2),[6],inactive: 0.068
same,cell viability (log2),[7],inactive: 0.0734
same,cell viability (log2),[8],inactive: 0.0692
C/C=C/C1=C(C(=O)O)N2C(=O)[C@@H](NC(=O)[C@H](N)c3ccc(O)cc3)[C@H]2SC1,cell viability (log2),[9],inactive: 0.0139
same,cell viability (log2),[10],inactive: -0.0264
same,cell viability (log2),[11],inactive: 0.0206
same,cell viability (log2),[12],inactive: 0.0411
same,cell viability (log2),[13],inactive: 0.0707
same,cell viability (log2),[14],inactive: 0.0681
same,cell viability (log2),[15],inactive: 0.0633
same,cell viability (log2),[16],inactive: 0.0434
same,cell viability (log2),[17],inactive: 0.0512
same,cell viability (log2),[18],inactive: 0.0505
same,cell viability (log2),[19],inactive: 0.0519
same,cell viability (log2),[20],inactive: 0.0834
COc1c(O)cc2c(-c3ccccc3)cc(=O)oc2c1OC,cell viability (log2),[1],inactive: 0.0942
same,cell viability (log2),[2],inactive: 0.0479
same,cell viability (log2),[3],inactive: 0.133
same,cell viability (log2),[4],inactive: 0.16
CCCCCCCCCCCCCCCC(=O)NCCO,cell viability (log2),[5],inactive: 0.109
same,cell viability (log2),[6],inactive: 0.0709
same,cell viability (log2),[7],inactive: 0.0624
same,cell viability (log2),[8],inactive: 0.0396
CO[C@@H](C(=O)N1Cc2[nH]nc(NC(=O)c3ccc(N4CCN(C)CC4)cc3)c2C1)c1ccccc1,cell viability (log2),[9],active: -0.25
same,cell viability (log2),[11],active: -0.418
same,cell viability (log2),[13],active: -0.596
same,cell viability (log2),[14],active: -0.134
same,cell viability (log2),[15],active: -0.679
same,cell viability (log2),[16],active: -0.355
same,cell viability (log2),[17],active: -0.794
same,cell viability (log2),[18],active: -0.46
same,cell viability (log2),[19],active: -1.13
same,cell viability (log2),[20],active: -1.21
CCN(CCO)CCCOc1ccc2c(Nc3cc(CC(=O)Nc4cccc(F)c4)[nH]n3)ncnc2c1,cell viability (log2),[9],active: -0.49
same,cell viability (log2),[11],active: -0.395
same,cell viability (log2),[13],active: -0.452
same,cell viability (log2),[15],active: -0.473
same,cell viability (log2),[16],active: -0.112
same,cell viability (log2),[17],active: -0.446
same,cell viability (log2),[19],active: -0.681
CC(C)CC(NP(=O)(O)O[C@@H]1O[C@@H](C)[C@H](O)[C@@H](O)[C@H]1O)C(=O)NC(Cc1c[nH]c2ccccc12)C(=O)O (some centres undefined),cell viability (log2),[5],inactive: 0.0833
same,cell viability (log2),[6],inactive: 0.00183
same,cell viability (log2),[7],inactive: 0.149
same,cell viability (log2),[8],inactive: -0.00437
Cc1cc(=O)n(-c2ccccc2)n1C,cell viability (log2),[1],inactive: 0.065
same,cell viability (log2),[2],inactive: 0.101
same,cell viability (log2),[3],inactive: 0.125
same,cell viability (log2),[4],inactive: 0.137
N#Cc1c2c(c(Nc3ccc(O)cc3)n3c1nc1ccccc13)CCC2,cell viability (log2),[1],inactive: 0.0182
same,cell viability (log2),[2],inactive: 0.0391
same,cell viability (log2),[3],inactive: 0.0659
same,cell viability (log2),[4],inactive: 0.0482
N#C/C(=C\c1ccc(O)c(O)c1)C(=O)c1ccc(O)c(O)c1,cell viability (log2),[5],active: -0.567
same,cell viability (log2),[6],active: -0.546
same,cell viability (log2),[7],active: -2.72
same,cell viability (log2),[8],active: -2.83
COc1cccc(CN2CCN(Cc3c[nH]c4ccccc34)CC2)c1,cell viability (log2),[1],inactive: 0.11
same,cell viability (log2),[2],inactive: 0.105
same,cell viability (log2),[3],inactive: 0.138
same,cell viability (log2),[4],inactive: 0.0572
NC12CC3CC(CC(C3)C1)C2,cell viability (log2),[9],inactive: -0.06
same,cell viability (log2),[10],inactive: 0.0955
same,cell viability (log2),[1],inactive: 0.0786
same,cell viability (log2),[2],inactive: 0.0271
same,cell viability (log2),[5],inactive: -0.0293
same,cell viability (log2),[6],inactive: 0.102
same,cell viability (log2),[11],inactive: 0.143
same,cell viability (log2),[12],inactive: 0.00388
same,cell viability (log2),[13],inactive: 0.109
same,cell viability (log2),[14],inactive: 0.0536
same,cell viability (log2),[3],inactive: 0.0862
same,cell viability (log2),[4],inactive: 0.153
same,cell viability (log2),[7],inactive: 0.0621
same,cell viability (log2),[8],inactive: 0.12
same,cell viability (log2),[15],inactive: 0.0464
same,cell viability (log2),[16],inactive: 0.0713
same,cell viability (log2),[17],inactive: 0.0902
same,cell viability (log2),[18],inactive: 0.067
same,cell viability (log2),[19],inactive: 0.0699
same,cell viability (log2),[20],inactive: 0.0562
